# The supplement of paper PMC4166925
# ± gives the standard deviation of the averaged measurements. The full ranking holds about 33,000 sequences; the median of “E-score (dimensionless, -0.5 to 0.5)” is about -0.049, and the highest 2% start at about 0.37. This is one part of the list.
# Test system: T1, PmTbr T-box DNA-binding domain (GST fusion)
# T1 sequence: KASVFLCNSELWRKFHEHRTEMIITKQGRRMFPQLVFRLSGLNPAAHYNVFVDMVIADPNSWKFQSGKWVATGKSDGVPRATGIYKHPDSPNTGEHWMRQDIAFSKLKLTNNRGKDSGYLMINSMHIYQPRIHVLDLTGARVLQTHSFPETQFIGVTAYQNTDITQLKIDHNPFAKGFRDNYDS
# Experiment: PBM E-score of 8-mer (E-score (dimensionless, -0.5 to 0.5)); Tbr is Tbrain of the sea star Patiria miniata (Pm) or the sea urchin Strongylocentrotus purpuratus (Sp); higher = stronger binding preference; most listed sequences are background and not binding sites
# Details: the construct has about 5 more residues each side
# How it was run: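 GST-fused Tbr T-box DNA-binding domains (the whole T-box plus about five flanking residues) were expressed in BL21 E. coli at 20 °C and purified by glutathione affinity chromatography. Universal Agilent oligonucleotide arrays were made double-stranded by primer extension, incubated with 200 nM protein in PBS (pH 7.5), then scanned and quantified. Every ungapped 8-mer was scored from probe intensities. The Universal PBM Analysis Suite gave each word an enrichment E-score, averaged over duplicate arrays.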
row,Sequence,PBM E-score of 8-mer
1,CCGGACGA,-0.199 ± 0.071
2,CCTTCAGA,-0.202 ± 0.057
3,CACACGCG,0.206 ± 0.0048
4,GAGATTCC,0.00974 ± 0.062
5,AATCTTCC,-0.0965 ± 0.084
6,ATGTTAGG,-0.186 ± 0.073
7,AGAAGTCT,-0.181 ± 0.015
8,CCATTAGA,-0.208 ± 0.051
9,ATCTAATG,-0.143 ± 0.031
10,CTACATTA,-0.1884 ± 0.0012
11,CACAAACA,0.0667 ± 0.018
12,AGAACACC,0.181 ± 0.0068
13,ACACAAGA,-0.0353 ± 0.01
14,ATTACGAC,-0.156 ± 0.12
15,GAGTCCCA,-0.379 ± 0.061
16,AGTTAGGG,-0.128 ± 0.021
17,CCCGTTCC,-0.0429 ± 0.011
18,AAACTTAA,-0.075 ± 0.092
19,AATAGGAG,-0.292 ± 0.0088
20,GACGCAGC,-0.0729 ± 0.018
21,TAGAAAGA,-0.238 ± 0.0053
22,AGAAGCGC,0.115 ± 0.05
23,AATTGAAG,-0.274 ± 0.11
24,ACTAGGAG,-0.0412 ± 0.067
25,ACTCTTAC,-0.0593 ± 0.074

row,Sequence,PBM E-score of 8-mer
1,CGGTCCGA,-0.184 ± 0.019
2,AAGTGTAG,0.147 ± 0.012
3,AAAAAGTG,0.23 ± 0.066
4,GTGTACGA,-0.00033 ± 0.037
5,ACAAGCAC,0.0252 ± 0.13
6,GCCCAGAC,-0.0954 ± 0.024
7,CCTGAAAA,0.0211 ± 0.0084
8,ATAGTGAT,0.043 ± 0.0019
9,CCGGTCGC,0.163 ± 0.0025
10,AATAAGTA,-0.116 ± 0.028
11,AGATTTGA,-0.0282 ± 0.021
12,GCGCCCTA,0.108 ± 0.035
13,ATCTTTCA,-0.1677 ± 0.0002
14,AGTCTTGC,-0.118 ± 0.017
15,AGTCCAAC,0.0467 ± 0.027
16,GGGGTTCA,-0.0121 ± 0.033
17,AAGCCCTT,-0.17 ± 0.078
18,AGGGGACG,-0.174 ± 0.07
19,CATACCCA,-0.203 ± 0.081
20,CTGGTTCA,-0.0379 ± 0.045
21,AGAACAAC,-0.0883 ± 0.08
22,CGACACTA,0.32 ± 0.008
23,CATTTATA,-0.12 ± 0.061
24,GCCGTGGA,-0.126 ± 0.0073
25,ATCGAGAC,0.0206 ± 0.045

row,Sequence,PBM E-score of 8-mer
1,AGCCATAT,-0.145 ± 0.012
2,ATCGTGCA,-0.108 ± 0.049
3,CAGGTTCA,-0.0437 ± 0.0035
4,CTGGACTA,-0.303 ± 0.006
5,CGTGTGAA,0.4524 ± 0.0013
6,GCGATCTA,0.0135 ± 0.028
7,CCAAGGAG,-0.211 ± 0.0077
8,CTCTGGTC,-0.149 ± 0.043
9,AAGGCAGA,-0.18 ± 0.0043
10,GTCTCCAC,-0.18 ± 0.0097
11,CCCTATAA,-0.257 ± 0.0061
12,ACGTACTC,0.061 ± 0.028
13,TCCATAAA,-0.369 ± 0.028
14,CGATCCTC,0.066 ± 0.012
15,AGATAATC,-0.0612 ± 0.033
16,GATCCAGA,0.0926 ± 0.012
17,CAGCGATA,0.0152 ± 0.0054
18,AATGGTTA,0.00267 ± 0.13
19,CCACGCCG,-0.0498 ± 0.0044
20,AAGATTCA,-0.152 ± 0.029
21,AAGACTAT,-0.183 ± 0.075
22,CAGCCTAA,0.0947 ± 0.055
23,AAGGGACT,-0.124 ± 0.021
24,GACACAGA,0.0762 ± 0.007
25,ACGGACAC,0.21 ± 0.019

row,Sequence,PBM E-score of 8-mer
1,CTCCTCGA,-0.0253 ± 0.066
2,CTTCGCGC,0.3742 ± 0.0014
3,CAACACGG,0.0435 ± 0.063
4,CCAACTAC,0.0856 ± 0.023
5,CCATCGAG,0.00702 ± 0.096
6,TATTAATA,-0.273 ± 0.11
7,CCGCTCAG,-0.212 ± 0.064
8,CAACATAC,0.0872 ± 0.0058
9,GAGTGCGA,0.4088 ± 0.00055
10,CTTAAGCC,-0.241 ± 0.0091
11,ACTTCACA,0.336 ± 0.011
12,CCCAACGC,0.0381 ± 0.093
13,CAGAGCAG,-0.244 ± 0.0029
14,ACAAGAAT,-0.0283 ± 0.069
15,AATTGTAC,-0.0451 ± 0.065
16,ACGGCCCG,-0.0651 ± 0.0091
17,ACTCTCTC,0.0496 ± 0.02
18,ATGCGTTG,0.11 ± 0.014
19,ACTGTTTG,0.0389 ± 0.019
20,AGTATACA,-0.0608 ± 0.012
21,GACTTAAA,-0.121 ± 0.0051
22,CTGGGAAC,-0.14 ± 0.055
23,ACTTTGGA,-0.166 ± 0.038
24,GCATCCAC,-0.102 ± 0.042
25,GGTTTAAC,0.0736 ± 0.11

row,Sequence,PBM E-score of 8-mer
1,ACTGTCCG,-0.275 ± 0.0065
2,TACAACAA,-0.0713 ± 0.1
3,CGCTGAGA,0.0477 ± 0.064
4,TGCGTACA,-0.205 ± 0.051
5,CTGTGGTA,-0.0442 ± 0.0015
6,AACCTTAC,-0.000525 ± 0.043
7,GCCAGAAA,-0.08679 ± 0.0008
8,CCATATAC,-0.00383 ± 0.065
9,CAGCAGTC,-0.0727 ± 0.028
10,ACACTTCT,0.4266 ± 0.0042
11,AGGGCGGC,-0.2 ± 0.052
12,ATTGATAG,0.0055 ± 0.008
13,CTATGAAA,-0.228 ± 0.043
14,ATATAACA,0.243 ± 0.042
15,GACACCTA,0.48906 ± 2.8e-05
16,GTTCATAA,-0.225 ± 0.022
17,AATCTACC,-0.0821 ± 0.029
18,GTCTGTTA,0.119 ± 0.0093
19,AGGTACTG,-0.125 ± 0.028
20,GGGACCAC,-0.165 ± 0.049
21,ACGGAGAT,-0.0953 ± 0.071
22,AAATTAAC,0.232 ± 0.073
23,AGCCGATG,-0.0347 ± 0.075
24,ATTAGACA,0.02 ± 0.032
25,TTTCGAAA,-0.043 ± 0.016

row,Sequence,PBM E-score of 8-mer
1,CCTCGTTC,-0.0464 ± 0.075
2,TATTACGA,-0.2129 ± 0.0019
3,ATCAAACA,0.0103 ± 0.0023
4,AATCCCAA,-0.188 ± 0.021
5,ATATTGAT,-0.118 ± 0.046
6,CGGGGCCA,-0.187 ± 0.019
7,CACACCTA,0.476 ± 0.009
8,ACGCATAT,0.0664 ± 0.022
9,ACTGGCAT,-0.0401 ± 0.017
10,CAATTATG,0.0282 ± 0.02
11,CATGATAA,0.00808 ± 0.0014
12,CGGCTCAG,-0.202 ± 0.059
13,TGTAGACA,0.155 ± 0.1
14,ACGCATAG,0.0992 ± 0.0014
15,CTCGGAAC,-0.259 ± 0.019
16,ATCGTGTA,-0.14 ± 0.028
17,CTGTTCTA,-0.136 ± 0.0063
18,ACGCATCT,-0.0356 ± 0.006
19,GCATGTCC,-0.097 ± 0.13
20,CAGTCGCA,0.169 ± 0.0026
21,ACCGAATC,-0.0932 ± 0.028
22,ACAAGCGC,0.0753 ± 0.029
23,CTGCCACC,0.265 ± 0.036
24,ATTTTTGA,-0.289 ± 0.044
25,AAGTGGTA,0.165 ± 0.013

row,Sequence,PBM E-score of 8-mer
1,CCTCACCA,0.141 ± 0.045
2,AAGAAATG,-0.161 ± 0.024
3,AGGGCTCG,-0.125 ± 0.058
4,ACCGAGGG,0.0441 ± 0.022
5,CCCGGGTC,0.00596 ± 0.0038
6,AGCGCGGC,0.0949 ± 0.0084
7,CGGGTAAA,-0.0337 ± 0.08
8,CTACTCTA,-0.2 ± 0.083
9,ATTTGGTA,-0.178 ± 0.0095
10,CGATTAAA,0.00579 ± 0.034
11,GATCTGAC,0.0957 ± 0.015
12,AGCGTTCC,-0.107 ± 0.076
13,CTATTGAG,0.0803 ± 0.0095
14,GATTAATC,-0.211 ± 0.095
15,CATCCTCG,-0.0724 ± 0.083
16,ATATTATG,-0.0518 ± 0.081
17,GTCGCTAA,0.3037 ± 0.0026
18,ATATGCAA,-0.128 ± 0.015
19,AACTATTA,-0.0264 ± 0.0078
20,CTGGTCCC,-0.214 ± 0.037
21,CCAACGAG,-0.193 ± 0.013
22,ACTTAATG,-0.128 ± 0.047
